Source: PubChem BioAssay (NCI)
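How tested: cells in 96-well plates exposed to compound for 48 hours at five concentrations. The concentration for 50% growth inhibition is given as GI50. The concentration for full growth arrest is given as TGI.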

Each compound was assayed on NCI-H322M lung (assay: NCI tumour cell line growth inhibition, 48 h).

| Compound | GI50 [µM] | TGI [µM] |
| --- | --- | --- |
| COc1cc(C2CC(c3ccccc3)=NN2C(C)=O)cc(OC)c1OC (stereo not given) | 12.2 | > 100 |
| c1ccc(CCN2CCOCC2)nc1 |  | > 100 |
| COc1ccc2cc(Cn3cc[n+](Cc4ccc5ccccc5c4)c3)ccc2c1 | 5.75 | 19.7 |
| CC(=O)OC1CC2C(C)(C)C(=O)C=C[C@]2(C)C2CCC3(C)C(c4ccoc4)[C@@H](O)[C@H]4O[C@]43[C@]12C (stereo not given in full) |  | 61.8 |
| N#CCCSC(=S)C1CCCC1=N (stereo not given) |  | > 100 |
| C=Cc1cc(OC)c2c(c1)c(=O)oc1c2cc(OC)c2c(O)ccc(C3OC(C)C(O)C(C)(O)C3O)c21 (stereo not given) | 0.001 |  |
| COc1ccc(-c2nc(N3CCOCC3)c3sc(CN(C)c4ncc(C(=O)NO)cn4)cc3n2)cn1 | < 0.01 | 0.146 |
| O=C(c1nc2ccc(Cl)cc2[nH]c1=O)C(O)c1ccc2c(c1)OCO2 (stereo not given) |  | > 100 |
| CCOC(=O)NC(=O)c1cn(CCCOC(=O)NCCCCCCNC(=O)OCCCn2cc(C(=O)NC(=O)OCC)c(=O)[nH]c2=O)c(=O)[nH]c1=O |  | > 100 |
| Cc1coc2c1C(=O)C(=O)c1c-2ccc2c1CCCC2(C)C |  | > 36.8 |
| C/C=N\n1c(C)c(C#N)c(C#N)c1N |  | > 100 |
| Cc1ccc([N+](=O)[O-])cc1S(=O)(=O)Nc1ccc(C2=NN(C(=O)c3ccccc3)C(c3cccs3)C2)cc1 (stereo not given) |  | > 100 |
| CCN(CC)CCCC(Cc1ccccc1)Nc1c2ccc(Cl)cc2nc2ccc(OC)cc12 (stereo not given) | 2.01 | 5.77 |
| CC1=CC(=O)c2c(C=O)c(O)c(O)c(C(C)C)c2C1=O |  | > 100 |
| NC(=O)CCC(CCC(N)=O)(CCC(N)=O)[N+](=O)[O-] |  | > 100 |
| CCOC(=O)C(=O)Nc1c(C)cccc1C(C)C |  | > 100 |
| CC(C)[Si](OC1=C(C(=O)N(C)c2ccccc2Cl)CCCCC1)(C(C)C)C(C)C |  | > 100 |
| COC(=O)C1(Cc2cccc(C)c2)Cc2c(C)cccc2C1=O (stereo not given) |  | > 100 |
| CC1(C)N=C(N)N=C(N)N1c1cccc(CCCCOc2ccccc2)c1 | 0.228 | > 100 |
| CC1C2(C)OC(=N)C(C#N)(C(C)O2)C1(C#N)C#N (stereo not given) |  | > 100 |
| Cc1nc2c(O)cc3c4c(n(Cc5ccccc5)c3c2nc1C)C(=O)CCC4 |  | > 100 |
| COc1ccc(C(=O)CC(=O)C(=O)Nc2ccc(C)c(C)c2)cc1 |  | > 100 |
| O=C(O)CP(=O)(O)O |  | > 100 |
| Brc1ccccc1C=NC12CC3CC(CC(C3)C1)C2 |  | > 100 |
| OCCCc1cc(O)c2c(c1)C(CO)C(c1ccc(O)c(O)c1)O2 (stereo not given) |  | > 100 |
| S=C(c1ccc2c(c1)OCO2)N1CCN(c2cccc(Cl)c2)CC1 | 4.28 | > 100 |
| CCOC1(OCC)N=C(N)C2(C#N)C3(C(=O)N(C(C)C)N=C3C)C12C#N (stereo not given) |  | > 100 |
| COC(=O)C1=C(CS(=O)c2ccc([N+](=O)[O-])cc2[N+](=O)[O-])ON(C)C1c1ccccc1 (stereo not given) |  | > 100 |
| O=C(Nc1cccc([N+](=O)[O-])c1)C(=O)C(C(=O)c1ccccc1F)C1OC(=O)C2C=CC=CC21 (stereo not given) |  | > 100 |
